# Results: a compilation of properties of binary mixtures (doi:10.1016/j.molliq.2016.11.074)
# The densities may have been worked out from excess volumes.
# Assay: xn = mol fraction of the nth substance listed
# Settings: 100 kPa
smiles,measurement,setting,value
CC[n+]1ccn(C)c1.CS(=O)(=O)[O-] + O,mass density,"293.15 K, x1 = 0.0087",1014.6 kg/m3
same,mass density,"293.15 K, x1 = 0.0119",1019.6 kg/m3
same,mass density,"293.15 K, x1 = 0.0188",1032.8 kg/m3
same,mass density,"293.15 K, x2 = 0",1243.1 kg/m3
same,mass density,"293.15 K, x2 = 0.3233",1234.5 kg/m3
same,mass density,"293.15 K, x2 = 0.5057",1225.1 kg/m3
same,mass density,"293.15 K, x2 = 0.619",1214.3 kg/m3
same,mass density,"293.15 K, x2 = 0.7542",1191.9 kg/m3
same,mass density,"293.15 K, x2 = 0.902",1124.9 kg/m3
same,mass density,"298.15 K, x1 = 0.0028",1000.6 kg/m3
same,mass density,"298.15 K, x1 = 0.0057",1008 kg/m3
same,mass density,"298.15 K, x1 = 0.0087",1013.2 kg/m3
same,mass density,"298.15 K, x1 = 0.0119",1018.2 kg/m3
same,mass density,"298.15 K, x2 = 0",1239.6 kg/m3
same,mass density,"298.15 K, x2 = 0.191",1233.9 kg/m3
same,mass density,"298.15 K, x2 = 0.3233",1231.1 kg/m3
same,mass density,"298.15 K, x2 = 0.4274",1225.8 kg/m3
same,mass density,"298.15 K, x2 = 0.5057",1221.7 kg/m3
same,mass density,"298.15 K, x2 = 0.619",1210.9 kg/m3
same,mass density,"298.15 K, x2 = 0.7542",1188.6 kg/m3
same,mass density,"298.15 K, x2 = 0.902",1122 kg/m3
same,mass density,"298.15 K, x2 = 0.9651",1054.9 kg/m3
same,mass density,"303.15 K, x1 = 0.0057",1006.5 kg/m3
same,mass density,"303.15 K, x1 = 0.0188",1029.3 kg/m3
same,mass density,"303.15 K, x2 = 0",1236.2 kg/m3
same,mass density,"303.15 K, x2 = 0.191",1230.5 kg/m3
same,mass density,"303.15 K, x2 = 0.3233",1227.8 kg/m3
same,mass density,"303.15 K, x2 = 0.4274",1222.4 kg/m3
same,mass density,"303.15 K, x2 = 0.5057",1218.4 kg/m3
same,mass density,"303.15 K, x2 = 0.619",1207.6 kg/m3
same,mass density,"303.15 K, x2 = 0.7542",1185.2 kg/m3
same,mass density,"303.15 K, x2 = 0.902",1119.1 kg/m3
same,mass density,"303.15 K, x2 = 0.9651",1052.7 kg/m3
same,mass density,"308.15 K, x1 = 0.0028",997.2 kg/m3
same,mass density,"308.15 K, x1 = 0.0057",1004.7 kg/m3
same,mass density,"308.15 K, x1 = 0.0119",1015.1 kg/m3
same,mass density,"308.15 K, x1 = 0.0188",1027.3 kg/m3
same,mass density,"308.15 K, x2 = 0",1232.8 kg/m3
same,mass density,"308.15 K, x2 = 0.191",1227.1 kg/m3
same,mass density,"308.15 K, x2 = 0.3233",1224.4 kg/m3
same,mass density,"308.15 K, x2 = 0.4274",1219.1 kg/m3
same,mass density,"308.15 K, x2 = 0.5057",1215 kg/m3
same,mass density,"308.15 K, x2 = 0.619",1204.2 kg/m3
same,mass density,"308.15 K, x2 = 0.7542",1181.9 kg/m3
same,mass density,"308.15 K, x2 = 0.902",1116.1 kg/m3
same,mass density,"308.15 K, x2 = 0.9651",1050.8 kg/m3
same,mass density,"313.15 K, x1 = 0.0028",995.5 kg/m3
same,mass density,"313.15 K, x1 = 0.0057",1002.8 kg/m3
same,mass density,"313.15 K, x1 = 0.0119",1013.7 kg/m3
same,mass density,"313.15 K, x1 = 0.0188",1025.1 kg/m3
same,mass density,"313.15 K, x2 = 0",1229.4 kg/m3
same,mass density,"313.15 K, x2 = 0.191",1223.7 kg/m3
same,mass density,"313.15 K, x2 = 0.3233",1221 kg/m3
same,mass density,"313.15 K, x2 = 0.4274",1215.7 kg/m3
same,mass density,"313.15 K, x2 = 0.619",1200.9 kg/m3
same,mass density,"313.15 K, x2 = 0.7542",1178.5 kg/m3
same,mass density,"313.15 K, x2 = 0.902",1113 kg/m3
same,mass density,"313.15 K, x2 = 0.9651",1049.2 kg/m3
O + CC[n+]1ccn(C)c1.CS(=O)(=O)[O-],mass density,"298.15 K, x1 = 1",995.9 kg/m3
same,mass density,"303.15 K, x1 = 1",994.2 kg/m3
same,mass density,"308.15 K, x1 = 1",993.2 kg/m3
same,mass density,"313.15 K, x1 = 1",991.6 kg/m3
